Test results from paper PMC6919601, “Identification of Plasmodium dipeptidyl aminopeptidase allosteric inhibitors by high throughput screening” (PLoS ONE, 2019).
Screen size: about 110,000 compounds; about 230 (0.21%) showed an effect of 50% or more. This is one part of the list.

target: DPAP1 (Plasmodium falciparum, UniProt Q8IIJ9); assay: primary screen, percent inhibition; read by cleavage of a fluorogenic dipeptide substrate; higher = more effect of the substance; design: species or system P. falciparum D10 trophozoite lysates; single well
Sequence (Q8IIJ9 whole entry, looked up): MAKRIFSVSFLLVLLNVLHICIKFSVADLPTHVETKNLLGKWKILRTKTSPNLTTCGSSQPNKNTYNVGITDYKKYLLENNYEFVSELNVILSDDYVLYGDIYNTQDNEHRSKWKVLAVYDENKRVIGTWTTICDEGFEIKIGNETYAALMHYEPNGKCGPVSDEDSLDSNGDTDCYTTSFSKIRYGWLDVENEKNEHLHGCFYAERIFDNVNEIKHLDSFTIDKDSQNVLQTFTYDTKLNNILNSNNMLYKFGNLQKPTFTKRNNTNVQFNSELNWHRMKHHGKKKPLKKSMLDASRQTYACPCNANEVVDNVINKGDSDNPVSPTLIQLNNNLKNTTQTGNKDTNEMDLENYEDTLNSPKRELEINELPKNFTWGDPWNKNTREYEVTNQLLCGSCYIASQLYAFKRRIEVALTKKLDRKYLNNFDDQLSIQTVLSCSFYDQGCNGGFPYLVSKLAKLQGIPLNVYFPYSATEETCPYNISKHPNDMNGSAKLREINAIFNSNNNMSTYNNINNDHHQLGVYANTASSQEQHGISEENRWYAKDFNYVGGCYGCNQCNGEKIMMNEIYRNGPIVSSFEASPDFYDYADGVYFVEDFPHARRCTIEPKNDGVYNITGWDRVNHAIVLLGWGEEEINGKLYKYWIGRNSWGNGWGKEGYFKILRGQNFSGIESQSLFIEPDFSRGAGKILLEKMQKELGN
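Note: 30 min substrate incubation versus DMSO and 10 µM JCP410 controls.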

Row | Structure (SMILES) | % Inhibition @ 10 uM [%]
1 | Cc1ccc2cc3cc(C(=O)NCCCN4CCCC4=O)oc3nc2c1 | -1.54
2 | C=CCOCC(O)C[S+](O)Cc1ccccc1 (stereo not shown) | 0.634
3 | CCC1CCc2nc3sc(C(=O)Nc4ccc(C(C)=O)cc4)c(N)c3cc2C1 (stereo not shown) | -3.03
4 | COc1ccc(-c2cc(N)n(S(=O)(=O)c3ccc(C)cc3)n2)c(OC)c1 | -0.495
5 | COc1cc(C(=O)Nc2nn3c(-c4ccco4)nnc3s2)cc(OC)c1OC | -1.56
6 | Cc1cc(C)nc(SCCC(=O)Nc2ccc(F)cc2)n1 | 3.04
7 | COc1c(F)c(F)c2c(C)c3ccccc3nc2c1F | 4.08
8 | O=C(Nc1nc(-c2ccc(S(=O)(=O)N3CCCC3)cc2)cs1)c1ccc(Cl)cc1 | 4.31
9 | COc1cc(OC)c(-n2cccc2/C=C2\C(=N)N3N=C(C)SC3=NC2=O)cc1Cl | -3.35
10 | O=C(NCc1nc2ccccc2n1CCOc1ccccc1)c1ccccc1 | -1.15
11 | CN(C)c1ccc(CN2CCCC(C(N)=O)C2)cc1 (stereo not shown) | 0.217
12 | C/C=C(\C)CN1CCN(CCOCCO)CC1 | -1.64
13 | CCCN(CCO)Cc1ccccc1C(F)(F)F | -0.262
14 | CC1=C(C(=O)Nc2cccnc2)C(c2ccccc2Cl)n2nc(-c3cccnc3)nc2N1 (stereo not shown) | 3.17
15 | CCOC(=O)c1c(NC(=O)CNCc2ccccc2)sc2c1CCN(C(=O)OCC)C2 | 6.51
16 | CC(c1ccccc1)N1C(=O)NC(NC(=O)C(C)(C)C)(C(F)(F)F)C1=O (stereo not shown) | 0.907
17 | Cc1sc2ncn(CC(=O)NCCCC(=O)NCCC3=CCCCC3)c(=O)c2c1C | 4.33
18 | COc1ccc(Cl)cc1NC(=O)c1cccc(Cl)c1 | 11.7
19 | COc1cc(/C=C2/NC(=O)N(Cc3ccc(F)cc3)C2=O)cc(Br)c1OCC(=O)O | 3.21
20 | O=C1CC(N2CCN(Cc3ccc4c(c3)OCO4)CC2)C(=O)N1Cc1ccc2c(c1)OCO2 (stereo not shown) | -4.89
21 | C=CC1C(N2CCOCC2)C(C)(C)S1(=O)=O (stereo not shown) | 5.53
22 | CC(C)(C)OC(=O)N1CCC(c2c(C(=O)Nc3nccs3)cnn2-c2ccc(F)cc2)CC1 | 6.66
23 | CC1CCCCN1c1nnc(NC(=O)NC2CCCC2)s1 (stereo not shown) | -2.85
24 | O=P(O)(C1CCCCC1)C1CCCCC1 | 4.44
25 | Cc1cc(-c2ccc(C)c(S(=O)(=O)N3CCC(c4ccccc4)C3)c2)on1 (stereo not shown) | -5.86

Row | Structure (SMILES) | % Inhibition @ 10 uM [%]
26 | O=C(Cc1nc(N2CCOCC2)nc(N2CCOCC2)n1)c1ccccc1 | 2.17
27 | CN(CCCNC(=O)c1csc2c1CCCC2)C1CCCCC1 | -5.05
28 | O=C(COc1ccc(Cl)cc1)N1CCN(C/C=C/c2ccccc2)CC1 | 2.03
29 | CC(=O)NC1(NC(C)=O)CCN(C)CC1 | -1.86
30 | C=CCN1C(=O)C2(NC(CC)C3C(=O)N(c4ccc(Br)cc4)C(=O)C32)c2ccccc21 (stereo not shown) | 8.13
31 | Cc1ccc(C)c(NC(=O)c2ccc(Br)o2)c1 | 2.06
32 | CCOc1ccc(-c2[nH]nc3c2C(c2cccs2)C(C#N)=C(N)O3)c(OCC)c1 (stereo not shown) | -4.41
33 | CCOCCCNC(=O)C(c1ccc(Cl)cc1)N1CCC2(CC1)OCCO2 (stereo not shown) | -1.2
34 | O=C1c2ccccc2C(=O)N1CCc1n[nH]c(CCN2C(=O)c3ccccc3C2=O)n1 | -5.35
35 | COc1ccc(C2(C(=O)Nc3ccc(C(=O)NCCc4ccccc4)cc3)CCOCC2)cc1 | 0.931
36 | CCOc1ccc(S(=O)(=O)N(CC(=O)NC2CCCC2)c2ccccc2)cc1 | 0.54
37 | Clc1ccc(OCC2COCCO2)cc1 (stereo not shown) | 4.61
38 | O=C(CCn1c(=O)c2sccc2n(CC(=O)c2ccccc2)c1=O)NCCc1ccc(Cl)cc1 | 11.4
39 | CN(C)c1ccc2c(c1)OC(N)=C(C#N)C2c1ccoc1 (stereo not shown) | -3.42
40 | COc1oncc1NC(=O)[C@H](CC1CCCCC1)NC(=O)c1ccccc1 | -5.21
41 | Cc1ccc(S(=O)(=O)ON2C(=O)c3ccccc3C2=O)cc1 | 1.16
42 | O=C(NCCCN1CCOCC1)c1nnc(Cc2ccc(F)cc2)o1 | -3.8
43 | FC(F)(F)c1ccc(-c2noc(-c3ccc(Br)o3)n2)cc1 | 2.62
44 | COc1ccccc1OCCCN1CCCCC1 | -4.3
45 | COc1ccc(Br)cc1CNC(=O)C(C)n1c(=O)c2cccn2c2cccnc21 (stereo not shown) | 2.33
46 | O=C(CCc1ccccc1)NCCCN1CCOCC1 | 2.56
47 | C=CCOc1ccc(/C=C2\SC(N3CCCCCC3)=NC2=O)cc1 | 2.03
48 | CC1=C(C#Cc2ccccc2)c2ccccc2OC1(c1ccccc1)N1CCCCC1 (stereo not shown) | -7.11
49 | Cc1cc(=O)oc(C)c1C(=O)NCCC1=CCCCC1 | -4.06
50 | CCOc1cc(C2NC(C(=O)O)CS2)cc(Br)c1OCc1ccccc1C (stereo not shown) | 1.19

Row | Structure (SMILES) | % Inhibition @ 10 uM [%]
51 | CCC1(c2ccccc2)C(=O)N(Cc2ccccc2)C(=O)N(Cc2ccccc2)C1=O | -6.83
52 | CC1=C(C(=O)Nc2cccnc2)C(c2ccccc2Cl)n2nc(SCc3ccccc3)nc2N1 (stereo not shown) | 1.26
53 | CCOC(=O)N1CCN(C(=O)c2cccc(OC(F)(F)C(F)F)c2)CC1 | 3.86
54 | N#CC1=C2SCN(Cc3ccco3)CN2C(=O)CC1c1cccc2ccccc12 (stereo not shown) | 45.5
55 | CCOC(=O)NC12CC3CC(CC(C3)C1)C2 | -2.41
56 | CCOc1cc(C2NCCc3cc(OCC)c(OCC)cc32)ccc1O (stereo not shown) | 4.05
57 | Cc1ccc(-c2cc(NC(=O)COc3ccc(C(C)C)cc3)on2)cc1 | -1.47
58 | COC(=O)C1=CN(Cc2cccs2)C=C(C(=O)OC)C1c1ccc(C)s1 | -8.86
59 | O=C(O)[C@H]1CCCC[C@H]1C(=O)Nc1ccc(S(=O)(=O)N2CCOCC2)cc1 | -0.68
60 | COc1ccc(/C=C(\C#N)c2nc(-c3ccc(C)cc3)cs2)cc1 | -6.11
61 | COc1ccc2c(c1)-c1nc(NC(C)=O)sc1CC2 | -2.17
62 | CCO/C(O)=C1\C(C)=NC2=C(C(=O)CCC2)C1c1ccccc1Cl (stereo not shown) | -2.87
63 | COc1ccc(C2CC(c3ccc(C)cc3)Nc3nnnn32)c(OC)c1OC (stereo not shown) | -5.19
64 | O=C(O)C1Cc2c([nH]c3ccccc23)C(c2cccc([N+](=O)[O-])c2)N1 (stereo not shown) | -2.72
65 | CC12CCCCC1CCC1C2CCC2(C)C(NCC(O)COc3ccccc3)CCC12 (stereo not shown) | 0.219
66 | NS(=O)(=O)c1ccc(CCNC(=O)CSc2nc3ccsc3c(=O)n2CC(=O)O)cc1 | 4.63
67 | CNc1ccc(Br)cc1-c1nc2ccccc2nc1O | -0.693
68 | Cc1nn(C)cc1CNC(=O)c1cc2nc(-c3ccc4c(c3)OCO4)cc(C(F)(F)F)n2n1 | 0.812
69 | Cc1cc(O)c(NC(=O)c2cccc(Cl)c2)cc1C | 1.57
70 | C=CCSc1nc2c(cc1C#N)CCCC2 | 3.1
71 | Cc1ccc(-c2nc(C(=O)N3CCN(C(=O)c4ccco4)CC3)c3n2CCCCC3)cc1 | -4.99
72 | Cc1nn(CC(=O)N2CCC(C)CC2)c(=O)c2cc3cc(F)ccc3n12 | 1.68
73 | CC(=O)N1CCC2(CC1)OC(=O)C(C)=C2C(=O)N1CCN(c2ncccn2)CC1 | 3.62
74 | O=C(Nc1ccc2c(c1)OCCO2)c1cccc(OC(F)(F)C(F)F)c1 | -1.79
75 | O=C(Nc1nc(-c2ccc(Cl)cc2)cs1)C1CC1 | -6.25

Row | Structure (SMILES) | % Inhibition @ 10 uM [%]
76 | Cn1c(-c2ccccc2)cnc1SCC(=O)NCc1ccco1 | 1.37
77 | CC(C)Oc1ccc(C(=O)Nc2c3c(nn2-c2ccc(F)cc2)CS(=O)(=O)C3)cc1 | -0.657
78 | CNc1nnc(-c2cc3ccccc3oc2=O)s1 | -3.83
79 | COc1cccc(-c2ccc3c(n2)sc2c(=O)[nH]c(=O)[nH]c23)c1 | -0.0555
80 | CC1CC(C)CN(C2CCN(CCc3ccccc3)CC2)C1 (stereo not shown) | -0.414
81 | C=CCOc1ccc(CNc2ccc3[nH]c(O)nc3c2)cc1 | -3.23
82 | COc1cc2cc(-c3ccc(OC)c(OC)c3C)nc(N)c2cc1OC | -5.67
83 | CCCN1C(=O)c2ccccc2NC1c1cc(OC)c(OC)c(OC)c1 (stereo not shown) | -0.478
84 | COc1ccc(CN2CCN(Cc3ccc(F)cc3)CC2)cc1 | -5.23
85 | COc1cccc(NC(=O)c2ccc(C)c(Br)c2)c1 | -2.19
86 | CCNC(=O)c1c(NC(=O)COc2ccc(Br)cc2)sc2c1CCCC2 | -5.11
87 | CCn1c(-c2ccco2)nc2ccccc21 | -0.764
88 | CCOc1ccc(CCNC(=O)C(C)n2sc3ccccc3c2=O)cc1 (stereo not shown) | -3.93
89 | CC(=O)N1CCC(N2CCC(Cc3ccccc3)CC2)CC1 | -3.57
90 | NC(=O)c1ccccc1NC(=O)COc1ccc2ccccc2c1Br | 4.65
91 | Cc1ccc(C)c(Cn2c(C)c(CNCCc3ccc(Cl)cc3)c(C(=O)O)c2C)c1 | -1.92
92 | N#CC1=C(N)SC(N)=C(C#N)C1c1ccc(Cl)cc1 | 50.8
93 | O=C1CC(NC2=NCCCCC2)=NN1c1ccccc1 | 0.964
94 | COc1ccc(OC)c(C2c3cc(OC)c(OC)cc3CCN2C)c1 (stereo not shown) | 0.774
95 | CN1CCN(C(=O)Nc2cccc(Cl)c2)CC1 | -5.61
96 | CCOC(=O)c1c(C)nc2c(c1-c1ccc(OC)c(OC)c1)C(=O)c1ccccc1-2 | -5.11
97 | O=C(CCn1ccc2cc(S(=O)(=O)N3CCCCCC3)ccc21)N1CCC2(CC1)OCCO2 | 5.77
98 | N=c1c(S(=O)(=O)c2ccccc2)cc2c(=O)n3ccccc3nc2n1Cc1ccco1 | 6.64
99 | COc1cccc(NC(=O)c2cnn(-c3ccccc3)c2C)c1 | 2.64
100 | COC(=O)c1sccc1NC(=O)NCc1noc2ccc(C)cc12 | 3.25
